# Test results taken from PubChem BioAssay AID686979 (National Center for Advancing Translational Sciences (NCATS), 2013).
# Values joined by “and” are separate entries in the source; they are usually repeats but may differ in a detail not shown here. Equal values may be shown once. About 50,000 (12%) of roughly 420,000 compounds were called active. Inconclusive means that the source gave no clear call. Such entries were picked first, then a sample of the others. Calls come from the whole dose curve; as a rule, active = well fitted inhibition curve with a large enough effect; inconclusive = small, poorly fitted or top-dose-only effect; inactive = flat fitted curve, though single readings scatter. Potencies of inconclusive entries are doubtful fits and often do not repeat.
# Experiment: qHTS for Inhibitors of human tyrosyl-DNA phosphodiesterase 1 (TDP1): qHTS in cells in presence of CPT; note: nearly all actives have a fitted effect of over 55% in size
# Settings: chicken DT40 Tdp1-/-;hTDP1 cells + 20 nM CPT, ATP luminescence, 48 h; activity change, negative = growth inhibition: at 46.2 µM (top of the series)
# Method in brief: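 Cell growth measured by CellTiter-Glo luminescence after a minimum 48 h, 37 C compound exposure with 20 nM CPT in Tdp1-knockout DT40 cells stably expressing hTDP1, seeded 400/well; qHTS titration format.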
# % is set by controls: 0 for no effect and ±100 for the full control effect; potency is the fitted concentration of half-maximal effect; tags give direction and shape of the fitted curve.
SMILES,Potency,"activity change, negative = growth inhibition"
Cc1cc(C)c2c(=O)[nH][nH]c2n1,"inconclusive: 29.1 µM [inhibitor, single point]",
CCOc1ccc2c(ccc(/C=C/c3cc(C)c4cccnc4c3O)[n+]2C)c1,active: 2.59 µM,
O=c1cnc2cnc(Oc3ccccc3)nc2n1Cc1cccs1,"inconclusive: 29.1 µM [inhibitor, single point]",
c1ccc(Nc2ccc3c4c(cccc24)CC3)cc1,inactive,
COc1ccc(-c2cn(-c3cccc(C)c3)c(=O)[nH]2)cc1OC,"inconclusive: 16.4 µM [inhibitor, partial curve, poor fit]",
CCCCC(=O)NC(=S)Nc1c(C)cc(Br)cc1C,active: 20.6 µM,
COc1ccccc1/C=C/c1nc(C#N)c(NCc2ccccc2)o1,"inconclusive: 18.4 µM [inhibitor, single point]",
Cc1ncc(CO)n1Cc1ccc(Cl)cc1,inactive,
Cc1cccc2sc(NC(=O)CNS(=O)(=O)c3ccc(Br)s3)nc12,,inconclusive: -34% [inhibitor]
Cc1cccc(-c2nc(=S)c3c(n2Cc2ccco2)CCCC3)c1,active: 20.6 µM,
COc1ccc(Cl)cc1NC(=O)CSc1nc(N2CCCCC2)nc(N2CCCCC2)n1,"inconclusive: 18.4 µM [inhibitor, single point]",
C[C@]12c3[nH]c4ccc(Cl)cc4c3CCN1C(=O)[C@@H](CC(=O)NCC13CC4CC(CC(C4)C1)C3)C[C@@H]2C(=O)N1CCCCC1,active: 16.4 µM,
CC(=O)c1c(C)nn(CC(O)COc2ccc3ccccc3c2)c1C (stereo not drawn),"inconclusive: 25.9 µM [inhibitor, single point]",
COc1ccc(-c2nnc3sc(C(C)N4C(=O)c5ccccc5C4=O)nn23)cc1 (stereo not drawn),"inconclusive: 29.1 µM [inhibitor, single point]",
Cc1cc(C)cc(NC(=O)c2oc3ccccc3c2COc2ccccc2)c1,"inconclusive: 29.1 µM [inhibitor, single point]",
Cc1cccc(OCC(=O)O/N=C(\N)c2ccc(Br)cc2)c1,inactive,
O=C1c2ccccc2C(=O)N1CC1CO1 (stereo not drawn),inactive,
COc1ccc(-c2nn(-c3ccccc3)cc2/C=C2/SC(=S)N(CCC(=O)O)C2=O)c(C)c1,"inconclusive: 16.4 µM [inhibitor, single point]",
COc1ccc(-n2ncc(C(=O)NCc3cccs3)c2C2CCN(C(=O)OC(C)(C)C)CC2)cc1,"inconclusive: 29.1 µM [inhibitor, single point]",
CNCC(C)COc1ccccc1OCc1ccccc1 (stereo not drawn),"inconclusive: 16.4 µM [inhibitor, partial curve]",
COc1ccc(Nc2nc(N)nc(CSC(=S)N3CCOCC3)n2)cc1,"inconclusive: 18.4 µM [inhibitor, single point]",
N#CC1=C(S)N(c2ccccc2)C(c2ccc(-c3cccc(Cl)c3)o2)NC1=O (stereo not drawn),"inconclusive: 29.1 µM [inhibitor, single point]",
Cc1nc2ccccc2c2oc(C(=O)Nc3ccc(C(C)C)cc3)cc12,"inconclusive: 29.1 µM [inhibitor, single point]",
CC(=O)Nc1ccc(N=c2cc([N+](=O)[O-])cc(Cl)n2O)cc1,"inconclusive: 20.6 µM [inhibitor, single point]",
O=C(Nc1ccncc1)c1c(F)cccc1F,"inconclusive: 7.08 µM [inhibitor, partial curve]",

SMILES,Potency,"activity change, negative = growth inhibition"
COc1ccc(N2CC(C(=O)Nc3nnc(C4CCCCC4)s3)CC2=O)cc1 (stereo not drawn),"inconclusive: 20.6 µM [inhibitor, single point]",
N=c1ccn(Cc2cccc(Cl)c2)cc1,active: 2.59 µM,
COc1ccc(C(C)C)cc1-c1cc(C(=O)NCc2cc(C(F)(F)F)cc(C(F)(F)F)c2)[nH]n1,,inconclusive: -32.3% [inhibitor]
COC(=O)[C@]12CCCCC=C1N(CCc1ccc(OC)c(OC)c1)C(=O)[C@H](CC(=O)NCCCCc1ccccc1)C2,active: 20.6 µM,
Cc1cccc(N=Nc2c(N)n[nH]c2N)c1,inactive,
COCCOC(=O)C1=C(C)NC(C)=C(C(=O)OC/C=C/c2ccccc2)C1c1cccc([N+](=O)[O-])c1 (stereo not drawn),"inconclusive: 26.6 µM [inhibitor, single point]",
O=C(NCCCCO)c1ccc2c3c(cccc13)CC2,inactive,
Cc1ccc(NN2C(=O)C=C(c3ccc(Cl)cc3)C2=O)cc1,active: 5.8 µM,
CCOc1c(CNCCCSc2nc(C)cc(C)n2)cccc1OC,active: 20.6 µM,
CC(O)CN=c1cc(-c2ccccc2)oc2ccc(Cl)cc12 (stereo not drawn),"inconclusive: 23.1 µM [inhibitor, single point]",
COc1cc2c(cc1OC)CN(S(=O)(=O)/C=C/c1ccccc1)CC2,inactive,
CCOc1ccc(C(c2c(O)cc(C)n(Cc3ccco3)c2=O)N2CCN(C)CC2)cc1 (stereo not drawn),inactive,
CC1CCN(C(=O)Cn2cc(SCC(=O)NCc3ccccc3)c3ccccc32)CC1,"inconclusive: 16.4 µM [inhibitor, single point]",
Cn1nc(C(=O)NC2CCCN(Cc3ccccc3F)C2)c2ccccc2c1=O (stereo not drawn),"inconclusive: 11.6 µM [inhibitor, partial curve, poor fit]",
COc1ccccc1NC(=O)CC(=O)CSc1nnc(-c2ccc(C)cc2)n1-c1ccccc1,inactive,
O=C(NNC(=O)c1csc(-c2ccccc2)n1)c1ccccc1,"inconclusive: 29.1 µM [inhibitor, single point]",
Cc1cc(C)c(-c2c(N)cc(Br)cc2Br)c(N)c1,,inconclusive: -34.2% [inhibitor]
CCOc1ccc(-c2cn3c(n2)sc2cc(C(=O)NC(C)C45CC6CC(CC(C6)C4)C5)ccc23)cc1 (stereo not drawn),"inconclusive: 11.6 µM [inhibitor, partial curve]",
O=C(N/N=C/c1cccc([N+](=O)[O-])c1)c1cccc(Br)c1,"inconclusive: 29.1 µM [inhibitor, single point]",
C=C1CCC2[C@](C)(CO)[C@H](O)CC[C@@]2(C)[C@@H]1C/C=C1\C(=O)OC[C@H]1O (stereo partly drawn),active: 3.66 µM,
CCC(Sc1nnc(-c2ccc(F)cc2)c(-c2ccc(F)cc2)n1)C(=O)NC1CCCC1 (stereo not drawn),inactive,
COc1ccccc1OCCCN1CCC(C(O)(c2ccccc2)c2ccccc2)CC1,"inconclusive: 18.4 µM [inhibitor, single point]",
Cc1ccc(SCC(=O)c2c(C)nc3cc(C)ccn23)cc1,"inconclusive: 11.6 µM [inhibitor, partial curve]",
O=S(=O)(c1ccccc1)n1nc(-c2ccco2)nc1NCc1ccccc1,"inconclusive: 23.1 µM [inhibitor, single point]",
CNc1cc(C)c(C#N)c2nc3ccccc3n12,inactive,

SMILES,Potency,"activity change, negative = growth inhibition"
COc1ccc2nc3ccccc3nc2c1NC(=O)c1ccccc1Cl,"inconclusive: 20.6 µM [inhibitor, partial curve]",
Cc1ccccc1OCC(O)CN1C(=O)c2ccccc2C1=O (stereo not drawn),inactive,
CN1CCCc2cc(C=O)ccc21,inactive,
CCCCNc1ccc(C(=O)OCCOCCOCCOCCOCCOCCOCCOCCOCCOC)cc1,"inactive and inconclusive: 2.27 µM [inhibitor, full curve, poor fit]",
C[C@H]1CN([C@@H](C)CO)S(=O)(=O)c2ccc(-c3cccc(F)c3)cc2O[C@@H]1CN(C)C,inactive,
CC(C)OCCCNC(=O)c1ccc(CS(=O)(=O)Cc2ccccc2F)o1,"inconclusive: 22.4 µM [inhibitor, single point]",
CN(C)c1cccc2cccc(N(C)C)c12,inactive,
COc1ccc(C(CCNCc2ccc(N(C)C)cc2)c2ccccc2OC)cc1 (stereo not drawn),active: 18.4 µM,
CC(C)CCNC(=O)c1onc(CSc2ccccc2)c1C(=O)NCCC(C)C,active: 23.1 µM,
COCc1c(C(=O)N2CCN(Cc3c(F)cccc3Cl)CC2)oc2ccccc12,"inconclusive: 20.6 µM [inhibitor, single point]",
CCNC(=O)Cc1ccc(NS(=O)(=O)c2ccc(F)cc2)cc1,inactive,
COc1ccc(C(=O)Nn2c(CC(C)C)nc3cc(Cl)ccc3c2=O)c(OC)c1,"inconclusive: 29.1 µM [inhibitor, single point]",
CC(Nc1oc(-c2ccc(COc3ccccc3)o2)nc1C#N)c1ccccc1 (stereo not drawn),active: 6.51 µM,
O=C(CSc1nc2c([nH]c3ccccc32)c(=O)n1-c1ccccc1F)Nc1cccc(Cl)c1,"inconclusive: 29.1 µM [inhibitor, single point]",
CCOC(=O)c1sc2nc(C)[nH]c(=S)c2c1C,"inconclusive: 18.4 µM [inhibitor, single point]",
C=CCC(NCc1ccccc1)c1ccc(OC)cc1 (stereo not drawn),"inconclusive: 20.6 µM [inhibitor, single point]",
CCC(=O)N1CCc2cc(S(=O)(=O)CCC(=O)Nc3cc(Cl)ccc3OC)ccc21,"inconclusive: 29.1 µM [inhibitor, single point]",
O=C(COC(=O)c1cc([N+](=O)[O-])ccc1N1CCOCC1)NCc1ccccc1,inactive,
N#Cc1cc(-c2ccccc2)nnc1Sc1ccc(Cl)cc1,"inconclusive: 0.0164 µM [inhibitor, full curve, poor fit]",
COc1ccc(CCNc2ncnc3sc(C)cc23)cc1OC,active: 0.58 µM,
COc1ccc(OC)c(N(CC(=O)Nc2cccc3ccccc23)S(C)(=O)=O)c1,inactive,
CC(=O)NCCc1ccc(C(=O)Cn2cnc3ccccc3c2=O)cc1,inactive,
CN1/C(=C/C(=O)C2CC2)C(C)(C)c2ccccc21,"inconclusive: 20.6 µM [inhibitor, partial curve]",
